Measurements from the supplement of paper PMC12217912.
The list shows a part of the results. Sequences were assembled here from the parent chain. Inactive controls read about 0.05.

B1: TEV protease; numbered along this chain (parent)
chain: MGESLFKGPRDYNPISSSICHLTNESDGHTTSLYGIGFGPFIITNKHLFRRNNGTLVVQSLHGVFKVKDTTTLQQHLVDGRDMIIIRMPKDFPPFPQKLKFREPQREERICLVTTNFQTKSMSSMVSDTSCTFPSGDGIFWKHWIQTKDGQCGSPLVSTRDGFIVGIHSASNFTNTNNYFTSVPKNFMELLTNQEAQQWVSGWRLNADSVLWGGHKVFMVKPEEPFQPVKEATQL

Variants of: B1
Test: raw area under fraction-flipped curve 0-4 h after induction (AUC4h, not background-subtracted), DNA-recorder readout of cleavage of the substrate (dimensionless); higher = more cleavage of the substrate by the protease variant
Conditions: temperature: 34 °C; time window: 0-4 h after rhamnose induction
Procedure: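 In vivo DNA recorder in E. coli TOP10(DE3) ΔrhaA at 34 °C. Each TEVp single-site mutant (parent TEVp 0) is paired with a single-site variant of the 7-mer TEVs (canonical ENLYFQ|S). The substrate sits between flexible linkers in a Bxb1-sfGFP-TEVs-SsrA fusion, so cleavage stabilises Bxb1 and speeds flipping of a recombination array, read by NGS. The value is the raw area under the fraction-flipped curve over 0-4 h after rhamnose induction (AUC4h), with ≥20 reads per time point. It is not background-subtracted; inactive controls average about 0.047.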
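Also: Bxb1 expression induced with 0.2% (w/v) L-rhamnose at OD600 near 0.5, cultures sampled hourly, flipped fraction per protease–substrate barcode pair counted by paired-end Illumina sequencing.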

Row | Variant | area with substrate ENLYAQS | area with substrate ENLYCQS | area with substrate ENLYDQS | area with substrate ENLYEQS | area with substrate ENLYGQS | area with substrate ENLYIQS | area with substrate ENLYKQS | area with substrate ENLYMQS | area with substrate ENLYNQS | area with substrate ENLYPQS | area with substrate ENLYQQS | area with substrate ENLYRQS | area with substrate ENLYSQS | area with substrate ENLYTQS | area with substrate ENLYVQS | area with substrate ENLYWQS | area with substrate ENLYYQS | area with substrate ENLYLQS | area with substrate ENLYHQS
1 | MGESLFKGPRDYNPISSSICHLTNESDGHTTSLYGIGFGPFIITNKHLFRRNNGTLVVQSLHGVFKVKDTTTLQRHLVDGRDMIIIRMPKDFPPFPQKLKFREPQREERICLVTTNFQTKSMSSMVSDTSCTFPSGDGIFWKHWIQTKDGQCGSPLVSTRDGFIVGIHSASNFTNTNNYFTSVPKNFMELLTNQEAQQWVSGWRLNADSVLWGGHKVFMVKPEEPFQPVKEATQL [Q75R] | 0.0661 | 0.0645 | 0.0644 | 0.0624 | 0.0575 | 0.0585 | 0.0576 | 0.0508 | 0.0463 | 0.0486 | 0.0596 | 0.0641 | 0.0561 | 0.0722 | 0.048 | 0.0532 | 0.0521 |  | 
2 | MGESLFKGPRDYNPISSSICHLTNESDGHTTSLYGIGFGPFIITNKHLFRRNNGTLVVQSLHGVFKVKDTTTLQFHLVDGRDMIIIRMPKDFPPFPQKLKFREPQREERICLVTTNFQTKSMSSMVSDTSCTFPSGDGIFWKHWIQTKDGQCGSPLVSTRDGFIVGIHSASNFTNTNNYFTSVPKNFMELLTNQEAQQWVSGWRLNADSVLWGGHKVFMVKPEEPFQPVKEATQL [Q75F] | 0.0769 |  | 0.0608 | 0.0621 | 0.0424 | 0.148 | 0.082 | 0.0659 | 0.0675 | 0.0576 | 0.0613 | 0.0606 |  | 0.0725 | 0.0709 | 0.0713 | 0.0764 | 0.0653 | 
3 | MGESLFKGPRDYNPISSSICHLTNESDGHTTSLYGIGFGPFIITNKHLFRRNNGTLVVQSLHGVFKVKDTTTLQQHLVDGRNMIIIRMPKDFPPFPQKLKFREPQREERICLVTTNFQTKSMSSMVSDTSCTFPSGDGIFWKHWIQTKDGQCGSPLVSTRDGFIVGIHSASNFTNTNNYFTSVPKNFMELLTNQEAQQWVSGWRLNADSVLWGGHKVFMVKPEEPFQPVKEATQL [D82N] | 0.0612 | 0.0616 | 0.0868 | 0.0575 | 0.055 | 0.103 | 0.0202 | 0.0588 |  | 0.0605 | 0.0732 | 0.0815 | 0.0538 |  | 0.0673 | 0.0538 | 0.0587 |  | 0.0587
4 | MGESLFKGPRDYNPISSSICHLTNESDGHTTSLYGIGFGPFIITNKHLFRRNNGTLVVQSLHGVFKVKDTTTLQQHLVDGRDMIRIRMPKDFPPFPQKLKFREPQREERICLVTTNFQTKSMSSMVSDTSCTFPSGDGIFWKHWIQTKDGQCGSPLVSTRDGFIVGIHSASNFTNTNNYFTSVPKNFMELLTNQEAQQWVSGWRLNADSVLWGGHKVFMVKPEEPFQPVKEATQL [I85R] | 0.0611 |  |  | 0.0627 |  | 0.0588 | 0.068 | 0.0561 | 0.0623 | 0.054 | 0.0651 | 0.0619 |  |  | 0.0616 | 0.06 |  | 0.0843 | 0.059
5 | MGESLFKGPRDYNPISSSICHLTNESDGHTTSLYGIGFGPFIITNKHLFRRNNGTLVVQSLHGVLKVKDTTTLQQHLVDGRDMIIIRMPKDFPPFPQKLKFREPQREERICLVTTNFQTKSMSSMVSDTSCTFPSGDGIFWKHWIQTKDGQCGSPLVSTRDGFIVGIHSASNFTNTNNYFTSVPKNFMELLTNQEAQQWVSGWRLNADSVLWGGHKVFMVKPEEPFQPVKEATQL [F65L] | 0.0755 |  | 0.0552 | 0.0584 | 0.0679 |  |  | 0.101 |  | 0.097 |  | 0.0545 |  |  |  | 0.1 |  | 0.0783 | 
6 | MGESLFKGPRDYNPISSSICHLTNESDGHTTSLYGIGFGPFIITNKHLFRRNNGTLVVQSLHGVFKVKDTETLQQHLVDGRDMIIIRMPKDFPPFPQKLKFREPQREERICLVTTNFQTKSMSSMVSDTSCTFPSGDGIFWKHWIQTKDGQCGSPLVSTRDGFIVGIHSASNFTNTNNYFTSVPKNFMELLTNQEAQQWVSGWRLNADSVLWGGHKVFMVKPEEPFQPVKEATQL [T71E] | 0.0619 |  |  | 0.0661 | 0.0733 |  | 0.0504 | 0.0557 | 0.0732 | 0.0656 | 0.0812 |  | 0.0623 | 0.0634 |  | 0.0625 |  |  | 0.0588
7 | MGESLFKGPRDYNPISSSICHLTNESDGHTTSLYGIGFGPFIITNKHLFRRNNGTLVVQSHHGVFKVKDTTTLQQHLVDGRDMIIIRMPKDFPPFPQKLKFREPQREERICLVTTNFQTKSMSSMVSDTSCTFPSGDGIFWKHWIQTKDGQCGSPLVSTRDGFIVGIHSASNFTNTNNYFTSVPKNFMELLTNQEAQQWVSGWRLNADSVLWGGHKVFMVKPEEPFQPVKEATQL [L61H] | 0.0735 | 0.088 | 0.0721 | 0.0707 | 0.0454 | 0.125 | 0.0586 |  | 0.0646 | 0.0764 | 0.0554 | 0.0568 |  | 0.0818 | 0.135 | 0.0721 |  | 0.092 | 0.0644
8 | MGESLFKGPRDYNPISSSICHLTNESDGHTTSLYGIGFGPFIITNKHLFRRNNGTLVVQSWHGVFKVKDTTTLQQHLVDGRDMIIIRMPKDFPPFPQKLKFREPQREERICLVTTNFQTKSMSSMVSDTSCTFPSGDGIFWKHWIQTKDGQCGSPLVSTRDGFIVGIHSASNFTNTNNYFTSVPKNFMELLTNQEAQQWVSGWRLNADSVLWGGHKVFMVKPEEPFQPVKEATQL [L61W] | 0.0911 |  |  | 0.0907 | 0.0561 | 0.12 | 0.0677 | 0.0909 | 0.0626 | 0.0692 |  |  | 0.0716 | 0.077 |  | 0.0713 |  |  | 0.0709
9 | MGESLFKGPRDYNPISSSICHLTNESDGHTTSLYGIGFGPFIITNKHLFRRNNGTLVVQSLHGVFKVKDETTLQQHLVDGRDMIIIRMPKDFPPFPQKLKFREPQREERICLVTTNFQTKSMSSMVSDTSCTFPSGDGIFWKHWIQTKDGQCGSPLVSTRDGFIVGIHSASNFTNTNNYFTSVPKNFMELLTNQEAQQWVSGWRLNADSVLWGGHKVFMVKPEEPFQPVKEATQL [T70E] | 0.061 |  | 0.0553 | 0.0521 | 0.0553 | 0.0855 | 0.0545 | 0.06 | 0.0568 | 0.0531 |  |  | 0.0591 | 0.0554 | 0.0972 |  |  |  | 0.066
